{
  "source": "PubChem BioAssay AID504332",
  "about": "(National Center for Advancing Translational Sciences (NCATS), 2011)",
  "note": "Among all 350,000 compounds or so, about 31,000 (8.9%) were called active. The inconclusive results got no clear call from the source; some entries with a clear call stand among them for comparison. The call rests on the fitted dose curve; in most records, active means well fitted inhibition curve with a large enough effect; inconclusive means small, poorly fitted or top-dose-only effect; inactive means no such curve, though single readings can be large or run the other way. A potency beside an inconclusive call is a rough fit, not a confirmed value. On the % scale 0 is the no-effect control and ±100 the full control effect; potency means the concentration at half of the fitted maximal effect; tags describe the fitted curve by direction and shape.",
  "data": [
    {"molecular_target": "Histone-lysine N-methyltransferase EHMT2 (Homo sapiens) (UniProt Q96KQ7)", "sequence (Q96KQ7 whole entry, looked up)": "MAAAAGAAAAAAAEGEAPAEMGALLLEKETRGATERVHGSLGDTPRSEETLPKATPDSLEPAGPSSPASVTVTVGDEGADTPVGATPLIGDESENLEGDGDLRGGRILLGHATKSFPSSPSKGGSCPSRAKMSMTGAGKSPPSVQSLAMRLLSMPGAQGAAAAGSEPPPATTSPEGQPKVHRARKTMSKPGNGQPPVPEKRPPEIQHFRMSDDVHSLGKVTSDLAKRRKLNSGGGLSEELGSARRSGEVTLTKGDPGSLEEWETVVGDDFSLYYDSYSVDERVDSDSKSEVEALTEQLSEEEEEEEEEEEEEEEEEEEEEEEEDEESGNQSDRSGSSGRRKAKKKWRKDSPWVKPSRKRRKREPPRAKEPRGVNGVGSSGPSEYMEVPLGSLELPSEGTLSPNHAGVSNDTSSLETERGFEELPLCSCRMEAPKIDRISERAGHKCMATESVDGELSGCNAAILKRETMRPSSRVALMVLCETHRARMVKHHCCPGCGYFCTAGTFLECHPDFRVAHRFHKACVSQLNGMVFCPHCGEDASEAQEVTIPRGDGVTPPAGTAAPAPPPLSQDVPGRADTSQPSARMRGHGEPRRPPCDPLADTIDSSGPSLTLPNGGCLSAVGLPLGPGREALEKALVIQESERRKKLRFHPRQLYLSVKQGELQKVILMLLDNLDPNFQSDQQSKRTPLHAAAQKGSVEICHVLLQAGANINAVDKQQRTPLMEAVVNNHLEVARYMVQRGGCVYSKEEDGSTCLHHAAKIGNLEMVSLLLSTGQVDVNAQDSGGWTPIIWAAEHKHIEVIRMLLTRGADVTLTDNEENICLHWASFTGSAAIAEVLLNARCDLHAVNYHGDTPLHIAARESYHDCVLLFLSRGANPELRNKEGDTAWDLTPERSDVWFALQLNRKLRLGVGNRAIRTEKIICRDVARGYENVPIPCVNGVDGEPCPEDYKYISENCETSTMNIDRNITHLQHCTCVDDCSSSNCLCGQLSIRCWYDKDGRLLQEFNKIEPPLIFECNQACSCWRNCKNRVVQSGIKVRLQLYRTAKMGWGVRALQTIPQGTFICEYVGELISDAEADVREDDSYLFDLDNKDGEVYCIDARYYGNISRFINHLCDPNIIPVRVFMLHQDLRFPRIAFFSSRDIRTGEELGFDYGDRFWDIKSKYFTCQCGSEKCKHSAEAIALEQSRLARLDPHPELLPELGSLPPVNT", "assay": "qHTS Assay for Inhibitors of Histone Lysine Methyltransferase G9a; further: nearly all actives have a fitted effect of over 75% in size", "details": "G9a H3K9 monomethylation, AlphaScreen, 2 h; activity, negative = inhibition: at 59 µM (top of the series) unless noted", "outline": "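Methyltransferase reactions run at room temperature for 2 h (20 nM enzyme, 500 nM biotin-H3K9 peptide, 20 uM SAM) after a 15 min compound preincubation; product detected by AlphaScreen beads and anti-H3K9me1 antibody.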", "values": [
      {"smiles": "N#C/C(=C(/O)CCl)c1nc2c(s1)CCc1ccccc1-2", "Potency": "active: 3.55 µM"},
      {"smiles": "Cc1cc(C(=O)Nc2ccc3c(c2)OCCO3)co1", "Potency": "inconclusive: 89.1 µM [inhibitor, partial curve, poor fit]"},
      {"smiles": "COc1ccc(CC(=O)NNS(=O)(=O)c2ccc(F)cc2)cc1", "Potency": "inconclusive: 89.1 µM [inhibitor, single point]"},
      {"smiles": "Cc1ccc(C(=O)Nc2ccc(N3CCOCC3)cc2)cc1", "Potency": "inconclusive: 89.1 µM [inhibitor, partial curve, poor fit]"},
      {"smiles": "CCCc1cc(=O)n2[nH]c(NCc3c(Cl)cccc3Cl)nc2n1", "activity, negative = inhibition": "inactive: -50.6% [at 12.7 µM]"},
      {"smiles": "COc1ccc(NC2c3ccccc3C(=O)N2Cc2ccccc2Cl)cc1OC", "note": "(stereo unspecified)", "Potency": "active: 50.1 µM"},
      {"smiles": "Cc1nc2ccc(S(=O)(=O)Nc3cc(-c4nc5cccnc5s4)ccc3C)cc2s1", "Potency": "active: 50.1 µM"},
      {"smiles": "COc1ccc2cc(Br)ccc2c1CC(=O)NC(C)(C)C", "Potency": "inconclusive: 89.1 µM [inhibitor, single point]"},
      {"smiles": "O=C(CSc1ccc(Br)cc1)NCC(c1ccco1)N1CCCCC1", "note": "(stereo unspecified)", "Potency": "inconclusive: 89.1 µM [inhibitor, partial curve, poor fit]"},
      {"smiles": "CN(C)c1ccc(/C=C2\\SC(=S)N(Nc3ncc(C(F)(F)F)cc3Cl)C2=O)cc1", "activity, negative = inhibition": "inconclusive: -100% [inhibitor]"},
      {"smiles": "O=C(CSC1=NCCN1)C1COc2ccccc2O1", "note": "(stereo unspecified)", "Potency": "inconclusive: 89.1 µM [inhibitor, partial curve, poor fit]"},
      {"smiles": "CCN(CC)CCSc1nc2ccccc2c(=S)n1-c1ccccc1", "Potency": "inconclusive: 31.6 µM [inhibitor, single point]"},
      {"smiles": "Cc1nn(-c2nnc(NCc3ccccc3)nn2)c(C)c1Br", "Potency": "active: 12.6 µM"},
      {"smiles": "COc1ccccc1N1C(=O)CCC1(C#N)c1ccc(Br)cc1", "note": "(stereo unspecified)", "Potency": "inconclusive: 79.4 µM [inhibitor, partial curve, poor fit]"},
      {"smiles": "COc1ccccc1C(=O)NNC(=S)NC(=O)c1sc2ccccc2c1Cl", "activity, negative = inhibition": "inactive: 13.6%"},
      {"smiles": "CCOC(=O)CSc1nnc(SCCN2C(=O)c3ccccc3C2=O)s1", "Potency": "inconclusive: 12.6 µM [inhibitor, partial curve, poor fit]"},
      {"smiles": "CCCC(=O)N=c1sc2cccc(F)c2n1C", "Potency": "active: 44.7 µM"},
      {"smiles": "COc1ncc2nc(-c3ccc(Cl)cc3)c(=O)n(CCC#N)c2n1", "activity, negative = inhibition": "inactive: 11.4% [at 0.501 µM]"},
      {"smiles": "O=C(c1ccc(Cl)cc1)c1ccccc1C(=O)N1CCOCC1", "activity, negative = inhibition": "inactive: 7.13% [at 102 µM]"},
      {"smiles": "CCOc1ccccc1NC(=O)c1nn(C)c2c1CSc1ccccc1-2", "Potency": "inconclusive: 39.8 µM [inhibitor, partial curve, poor fit]"},
      {"smiles": "Cc1cc(OCC(=O)N(C)c2c(N)n(Cc3ccccc3)c(=O)[nH]c2=O)c(C(C)C)cc1Cl", "Potency": "inconclusive: 79.4 µM [inhibitor, partial curve, poor fit]"},
      {"smiles": "CCCCOc1ccc(C(=O)NCC(=O)N2CC(C)OC(C)C2)cc1", "note": "(stereo unspecified)", "activity, negative = inhibition": "inactive: 6.45% [at 102 µM]"},
      {"smiles": "NC(=NCCc1c[nH]c2ccccc12)NS(=O)(=O)c1ccc2ccccc2c1", "Potency": "inconclusive: 20 µM [inhibitor, single point]"},
      {"smiles": "CN1CCC(N(C)CC(C)(C)NS(=O)(=O)c2ccccc2)CC1", "Potency": "inconclusive: 56.2 µM [inhibitor, partial curve, poor fit]"},
      {"smiles": "O=C1CC(c2ccco2)CC(O)=C1C=NCCN1CCN(C2CC(=O)N(c3ccccc3)C2=O)CC1", "note": "(stereo unspecified)", "Potency": "inconclusive: 20 µM [inhibitor, single point]"},
      {"smiles": "Cc1ccc(-n2ncc(C(=O)NCCN3CCc4ccccc4C3)c2C2CCNCC2)cc1C", "activity, negative = inhibition": "inactive: -28.8%"},
      {"smiles": "CCN1CCCC1CNCC(O)COc1ccc(C(C)(C)C)cc1C", "note": "(stereo unspecified)", "activity, negative = inhibition": "inconclusive: -98.5% [inhibitor] [at 12.7 µM]"},
      {"smiles": "CC(=O)c1cccc(Nc2ccc3cc(S(=O)(=O)N4CCCC4)ccc3n2)c1", "Potency": "inconclusive: 31.6 µM [inhibitor, partial curve, poor fit]"},
      {"smiles": "COc1ccc(CC(=O)N[C@@H](C)C(=O)N2CCC3(CC2)NCCc2[nH]cnc23)cc1", "Potency": "inconclusive: 79.4 µM [inhibitor, single point]"},
      {"smiles": "CC1(C)Cc2c(sc3ncnc(NNC(=S)NCc4ccccc4)c23)CO1", "Potency": "inconclusive: 3.16 µM [inhibitor, partial curve, poor fit]"},
      {"smiles": "O=C(CCN1C(=O)C2C3C=CC(C3)C2C1=O)Oc1ccc2ccccc2c1", "note": "(stereo unspecified)", "Potency": "inconclusive: 35.5 µM [inhibitor, single point]"},
      {"smiles": "CCOC(=O)N1CCN(C(=O)COc2ccc(S(=O)(=O)NC(C)C)cc2)CC1", "Potency": "active: 44.7 µM"},
      {"smiles": "CCCc1cc(=O)[nH]c(SCc2nc(-c3ccccc3F)no2)n1", "Potency": "inconclusive: 2.24 µM [inhibitor, partial curve, poor fit]"},
      {"smiles": "CCOC(=O)N1CCN(c2c(NCCN(C)Cc3ccccc3)c(=O)c2=O)CC1", "Potency": "active: 56.2 µM"},
      {"smiles": "Cc1ccccc1CSc1nc2c([nH]c3ccccc32)c(=O)n1C", "activity, negative = inhibition": "inactive: 9.49%"},
      {"smiles": "CC1CC(C)CN(C(=O)COc2ccc([N+](=O)[O-])cc2Cl)C1", "note": "(stereo unspecified)", "Potency": "inconclusive: 50.1 µM [inhibitor, partial curve, poor fit]"},
      {"smiles": "C1=C(CCNc2ncnc3c2[nH]c2ccccc23)CCCC1", "Potency": "active: 56.2 µM"},
      {"smiles": "CCOC(=O)c1cc(S(=O)(=O)Nc2ccccc2OCC)[nH]n1", "Potency": "active: 8.91 µM"},
      {"smiles": "CN1C(=O)C2(OCC(COc3ccc(Cl)cc3)O2)c2ccccc21", "note": "(stereo unspecified)", "activity, negative = inhibition": "inactive: 10.4%"},
      {"smiles": "C[C@H](NC(N)=O)C(=O)Nc1ccc(N2CCOCC2)c(S(=O)(=O)Nc2ccc(Cl)cc2)c1", "Potency": "active: 1 µM"},
      {"smiles": "C=CCCC(=O)Nc1nc(C)c(-c2csc(Nc3cc(Cl)ccc3OC)n2)s1", "Potency": "inconclusive: 31.6 µM [inhibitor, single point]"},
      {"smiles": "O=C(CNC(=O)c1cccs1)Nc1ccncc1", "activity, negative = inhibition": "inactive: -43.2% [at 102 µM]"},
      {"smiles": "COc1cc([N+](=O)[O-])ccc1NC(=O)Cc1ccc(C)cc1", "Potency": "inconclusive: 50.1 µM [inhibitor, partial curve, poor fit]"},
      {"smiles": "COc1ccc(NC(=O)COC(=O)c2cccc(S(=O)(=O)N(C)C)c2)cc1", "activity, negative = inhibition": "inactive: 10.4% [at 102 µM]"},
      {"smiles": "CC(=O)N1CCC(Nc2ccc(C)cc2)CC1", "Potency": "inconclusive: 89.1 µM [inhibitor, single point]"},
      {"smiles": "CCN(C(=O)Cc1ccc(Br)cc1)C1CCCCC1", "Potency": "inconclusive: 2.51 µM [inhibitor, full curve]"},
      {"smiles": "Cc1cc(NS(=O)(=O)c2ccc(Nc3nc(-c4ccc(O)cc4)cs3)cc2)no1", "Potency": "active: 50.1 µM"},
      {"smiles": "Cc1cccn2c(=O)nc(SCC(=O)N3CCC(Cc4ccccc4)CC3)nc12", "Potency": "inconclusive: 89.1 µM [inhibitor, single point]"},
      {"smiles": "COc1ccc(-n2c(SCC(=O)N3CCOCC3)nnc2C(C)N2CCCCC2)cc1", "note": "(stereo unspecified)", "activity, negative = inhibition": "inactive: 9.48% [at 12.7 µM]"},
      {"smiles": "CC(=O)N1CC[C@@H]2CC(=O)C[C@@H](C)[C@@H]21", "activity, negative = inhibition": "inactive: 25.2% [at 135 µM]"},
      {"smiles": "CC(=O)c1ccccc1NC(=O)COC(=O)/C=C/c1ccc(OC(F)F)cc1", "Potency": "inconclusive: 39.8 µM [inhibitor, partial curve, poor fit]"},
      {"smiles": "Cc1ccc(NC2CCCCC2NS(=O)(=O)c2ccccc2)c(C)c1", "note": "(stereo unspecified)", "Potency": "active: 44.7 µM"},
      {"smiles": "Cc1ccc(S(=O)(=O)NCC(=O)N(CC(=O)NCC2CCCO2)Cc2ccccc2)cc1", "note": "(stereo unspecified)", "activity, negative = inhibition": "inactive: 7.3% [at 2.33 µM]"},
      {"smiles": "O=C(Nc1ccc(-c2nc3ccccc3[nH]2)cc1)c1ccco1", "Potency": "inconclusive: 39.8 µM [inhibitor, partial curve, poor fit]"},
      {"smiles": "CCN(CC)S(=O)(=O)c1ccc(N2CCOCC2)c(NS(=O)(=O)c2ccc(C)cc2)c1", "activity, negative = inhibition": "inactive: -12.3% [at 102 µM]"},
      {"smiles": "Cc1ccc2c(c1)-c1ncc(C(=O)c3cc(Br)ccc3O)cc1CO2", "Potency": "active: 8.91 µM"},
      {"smiles": "O=C1C2CCCN2C(=S)N1c1cc(Cl)ccc1Cl", "note": "(stereo unspecified)", "Potency": "inconclusive: 44.7 µM [inhibitor, partial curve, poor fit]"},
      {"smiles": "COC(=O)c1ccc(NC(=S)N2CCN(Cc3ccccc3OC)CC2)cc1", "Potency": "inconclusive: 39.8 µM [inhibitor, partial curve, poor fit]"},
      {"smiles": "Cc1cccc(NC(=O)c2oc3ccc(S(=O)(=O)N4CCC5(CC4)OCCO5)cc3c2C)c1C", "Potency": "inconclusive: 14.1 µM [inhibitor, partial curve]"},
      {"smiles": "COc1ccc(C(=O)OCC(=O)c2ccc(C3CCCCC3)cc2)cc1", "activity, negative = inhibition": "inactive: 9.52%"},
      {"smiles": "COc1ccc(C(C(=O)NC(C)C)N(C(=O)CCC(=O)Nc2nccs2)c2ccccc2F)cc1", "note": "(stereo unspecified)", "activity, negative = inhibition": "inactive: -2.32% [at 102 µM]"},
      {"smiles": "O=C(COC(=O)C1=COCCO1)NCc1ccc(Cl)cc1", "activity, negative = inhibition": "inactive: 21.8% [at 102 µM]"},
      {"smiles": "O=C1C2C3C=CC(C3=C(c3ccccc3)c3ccccc3)C2C(=O)N1Cc1ccccc1", "note": "(stereo unspecified)", "Potency": "active: 39.8 µM"},
      {"smiles": "Cn1c(C(=O)NCCc2ccsc2)cc2c(=O)n(C)c3ccccc3c21", "Potency": "inconclusive: 89.1 µM [inhibitor, partial curve, poor fit]"},
      {"smiles": "COc1ccc(NCC(=O)N/N=C/C=C\\c2ccccc2)cc1", "Potency": "active: 28.2 µM"},
      {"smiles": "NS(=O)(=O)c1ccc(NC(=S)Nc2ccn(Cc3cccc4ccccc34)n2)cc1", "Potency": "inconclusive: 10 µM [inhibitor, full curve]"},
      {"smiles": "Cc1nn(C(=O)c2cccc([N+](=O)[O-])c2)c(C)c1Cl", "Potency": "inconclusive: 50.1 µM [inhibitor, partial curve, poor fit]"},
      {"smiles": "Cc1nc(-c2ccccc2)cc(=O)[nH]1", "activity, negative = inhibition": "inactive: 0.565% [at 102 µM]"},
      {"smiles": "Cc1cc(C)cc(NC(=O)Cn2c(=O)n(Cc3ccc4c(c3)OCO4)c(=O)c3oc4ccccc4c32)c1", "activity, negative = inhibition": "inactive: -7.37%"},
      {"smiles": "CCN(CC)C(=O)Cc1c(O)c2ccccc2[nH]c1=O", "Potency": "inconclusive: 89.1 µM [inhibitor, single point]"},
      {"smiles": "COc1cc(NS(=O)(=O)c2ccc(NC(=S)NC(=O)c3sc4ccccc4c3Cl)cc2)ncn1", "Potency": "inconclusive: 1 µM [inhibitor, full curve, poor fit]"}
    ]}
  ]
}
